Here are results for 42 sequences from publication PMC7819943, “Rice protein-binding microarrays: a tool to detect cis-acting elements near promoter regions in rice”.

The other results are listed elsewhere or left out.

The test addresses T1, OsWOX13 (Oryza sativa, UniProt Q5QMM3 1-267).
T1 sequence: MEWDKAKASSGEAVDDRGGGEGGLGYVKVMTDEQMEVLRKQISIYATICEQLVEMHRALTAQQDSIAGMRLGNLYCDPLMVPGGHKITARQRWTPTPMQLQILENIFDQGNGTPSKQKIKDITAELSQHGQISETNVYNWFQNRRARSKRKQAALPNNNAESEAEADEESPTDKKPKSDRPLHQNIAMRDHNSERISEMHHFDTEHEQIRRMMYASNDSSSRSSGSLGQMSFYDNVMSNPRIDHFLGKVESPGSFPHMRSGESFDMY
As to the kind of experiment: protein-binding microarray (RPBM); PBS, 2% BSA, 51.3 ng/ul salmon testes DNA, 50 uM zinc acetate, 200 nM TF, 25 C, 1 h; high values mean tight binding. Particulars: protein: recombinant; tags: N-terminal polyhistidine and DsRed monomer fusion (pET32a); label: CyDye5-dUTP incorporated in the synthesized complementary strand; 3' TTTTT single-stranded linker to array surface; dsDNA, one strand shown. In a few lines:
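A custom Agilent array was converted to double-stranded form by primer extension with Cy5-dUTP and blocked with 2% BSA. Protein at 200 nM in PBS with 2% BSA, salmon testes DNA and 50 µM zinc acetate was applied for 1 h at 25 °C, followed by washing. The proteins were polyhistidine–DsRed N-terminal fusions of transcription factors, expressed in E. coli BL21-CodonPlus and Ni–NTA-purified. The binding signal is per-feature fluorescence intensity (arbitrary units) from an Axon 4000B scanner.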
As to “AATAATTTCATACTATTGGGAGTTGGGACCTTATCTTGCACGGAGTCACCTAGTGCAG”, the binding signal was 5340 fluorescence intensity (a.u.). Regarding “CCAAACAGGTAATCCAAGTTGGTGAGAGCGATATATATAGCGGAGTCACCTAGTGCAG”, the binding signal was 7210 fluorescence intensity (a.u.). “CTTGAGAGGCCAATCACATCCAATACCTTACCTTGCAGCCCGGAGTCACCTAGTGCAG”: the binding signal is 5200 fluorescence intensity (a.u.). With “AAGGGAATTAATTGCATGTGACAAATACGCAAAGCAAAGCCGGAGTCACCTAGTGCAG” the figure was 26200 fluorescence intensity (a.u.); with “ACTAATTTAATTTGAACCGACGCTTGAACAGGCTACTAGTCGGAGTCACCTAGTGCAG”, 48400 fluorescence intensity (a.u.).

Take “GCTTCGTCAACCCAATTACAGGAATTCTTAAACTTAAAAGCGGAGTCACCTAGTGCAG”: the binding signal is 6270 fluorescence intensity (a.u.). “TATGTGTTATATTTCAATTAAAATGAAATTGCAGTGTGCGCGGAGTCACCTAGTGCAG”: the binding signal is 7430 fluorescence intensity (a.u.). In the case of “GTGAGTTTTCTGATTTTGATTTAAACCCGTTAGGTTGAAGCGGAGTCACCTAGTGCAG”, the binding signal is 7690 fluorescence intensity (a.u.). For “TTATGGGGATAATTTGATCATCTAGATCTAGCATCCCTTGCGGAGTCACCTAGTGCAG”, the binding signal was 4990 fluorescence intensity (a.u.). Consider “ACTTTAATTGCCTTATAATAATTTAACAATGTTGTTTTCTCGGAGTCACCTAGTGCAG”, for which the binding signal is 23800 fluorescence intensity (a.u.). Regarding “AGCCCAATTAATGGCTCATTCGCCGGGAAGAAAAGCTGGGCGGAGTCACCTAGTGCAG”, the binding signal was 5350 fluorescence intensity (a.u.).

Consider “AAATCACTTCAATCAAATATTGTTATACTGCTCCCTGCAGCGGAGTCACCTAGTGCAG”, for which the binding signal is 17300 fluorescence intensity (a.u.). With “GTATATAATAGATAGATAGATATCTACGCTTGCACTGCGTCGGAGTCACCTAGTGCAG” the figure was 24200 fluorescence intensity (a.u.); with “TTGACTATAATTGATTTGGATAGTTGGCTATAATAAACCTCGGAGTCACCTAGTGCAG”, 54500 fluorescence intensity (a.u.).

As to “AGACTAGATTAATATTAAACCACCTCAATAGTATGTCTACCGGAGTCACCTAGTGCAG”, the binding signal is 8380 fluorescence intensity (a.u.). With “CGTGATGATTCATTTTCATCCAGTCACGAAATAATCCACGCGGAGTCACCTAGTGCAG”, the binding signal is 12600 fluorescence intensity (a.u.). Take “TAATTATTAATAATTAATTAACCATATAATAATGAGCTTTCGGAGTCACCTAGTGCAG”: the binding signal is 32800 fluorescence intensity (a.u.). On to “TAATTGCAAACCTAATTGACCAATATGCACATAAACAGTACGGAGTCACCTAGTGCAG”, for which the binding signal was 9500 fluorescence intensity (a.u.). Consider “CGGATTGAACAGTAAAGTGCAGACAAAATCAAACTAAGCTCGGAGTCACCTAGTGCAG”, for which the binding signal is 9870 fluorescence intensity (a.u.). Take “AATGGTGATTATAATGATATATTCTGTATTTATTGTTTGCCGGAGTCACCTAGTGCAG”: the binding signal was 27500 fluorescence intensity (a.u.).

For “GATAATTGCATCTATCAATGTGGAATCGTACGTACCATTGCGGAGTCACCTAGTGCAG”, the binding signal was 41300 fluorescence intensity (a.u.). “TTTTGATCATTTCAATAAATTTGTACAGTACTCACTGAGACGGAGTCACCTAGTGCAG”: the binding signal is 7650 fluorescence intensity (a.u.). Turning to “TGTTTGGATTGCTAATCTGCTGTGCTAAGTCTGTTTAAATCGGAGTCACCTAGTGCAG”, the binding signal was 7570 fluorescence intensity (a.u.). Consider “CCGTGTGATTTACCAGGTCAAAACCACTTCTCGACCAATCCGGAGTCACCTAGTGCAG”, for which the binding signal was 8830 fluorescence intensity (a.u.). With “GCTGCTGATTGCATATATATATGTGTATGTAATTAGGAAGCGGAGTCACCTAGTGCAG”, the binding signal was 31200 fluorescence intensity (a.u.). Consider “CAAAATTATCCCTCAACTAGCAGACCTTAGATATTTGGGTCGGAGTCACCTAGTGCAG”, for which the binding signal was 6540 fluorescence intensity (a.u.). “ACATAATAAGAAGGGTTAATTGGATCATTGTAAATTTGCTCGGAGTCACCTAGTGCAG”: the binding signal was 19300 fluorescence intensity (a.u.). As for “TTATAATTTATGCTTGTGCCAGTGCGATTGTTATCCAAAGCGGAGTCACCTAGTGCAG”, the binding signal is 18100 fluorescence intensity (a.u.). In the case of “TCTAATCAATCAAAAGCAATAAAGCTAGCGCACTAGGATTCGGAGTCACCTAGTGCAG”, the binding signal was 28600 fluorescence intensity (a.u.). In the case of “CCACTGACTACTGATGGGTGTGTTGATAGTGTTTTGTCAGCGGAGTCACCTAGTGCAG”, the binding signal was 4660 fluorescence intensity (a.u.). “ACGATGAATGCAAAAGTGACTGGATAGCAACACATTGCATCGGAGTCACCTAGTGCAG”: the binding signal is 4510 fluorescence intensity (a.u.). On to “AAAATTATAGTTACATTATAACTGCATTATAACTACAGTGCGGAGTCACCTAGTGCAG”, for which the binding signal was 5170 fluorescence intensity (a.u.).

For “TATTACCCGATTCCAATCAGCTGCTAATCGAGTGGTAATCCGGAGTCACCTAGTGCAG”, the binding signal is 5980 fluorescence intensity (a.u.).

As for “CCTATTGATTTAAGTTCAAACAAATTATGTGTTGCTTAAACGGAGTCACCTAGTGCAG”, the binding signal was 24600 fluorescence intensity (a.u.).

For the sequence “GGTTGGGGAAGGGAAGGGAAGGGAGAGGAGAGGGGCTCGCCGGAGTCACCTAGTGCAG”, the binding signal is 6860 fluorescence intensity (a.u.). On to “TGCCCTTATTTGCCCAATCACTAAGCGGATGATGACTAACCGGAGTCACCTAGTGCAG”, for which the binding signal was 6690 fluorescence intensity (a.u.). For the sequence “GCGTTTGATTAAGCAAGACGGGTGAGAAATTTTATCCTATCGGAGTCACCTAGTGCAG”, the binding signal was 8280 fluorescence intensity (a.u.). With “CAGTAATGTGAGCTATGACTGTGTGACAGAAACCCACGGTCGGAGTCACCTAGTGCAG” the figure was 3750 fluorescence intensity (a.u.). Next, “TTTGACATACGTATTCTAATTTCATGACAATTACTTAAGGCGGAGTCACCTAGTGCAG”: 14800 fluorescence intensity (a.u.); “CAGCATCAAAATGATTGGAGCAGTACTGCAGTGCTACGTTCGGAGTCACCTAGTGCAG”: 13100 fluorescence intensity (a.u.).

Turning to “AATAATTAGTTTATCTATTTTAAGGAGCAAAGTCGGATAACGGAGTCACCTAGTGCAG”, the binding signal was 36300 fluorescence intensity (a.u.).

As for “CTGCACTTTGATTAGATTAAGTACACAGAGTTCTTCTGCTCGGAGTCACCTAGTGCAG”, the binding signal is 23600 fluorescence intensity (a.u.).
